The values below come from ChEMBL document CHEMBL4888484, “Replenishing the malaria drug discovery pipeline: Screening and hit evaluation of the MMV Hit Generation Library 1 (HGL1) against asexual blood stage Plasmodium falciparum ,using a nano luciferase reporter read-out” (2022).

The whole screen tested about 150,000 compounds, of which about 540 (0.36%) showed an effect of 50% or more. The list shows a part of the results.

The test system of this test is Plasmodium falciparum. The experiment in a line: Primary screen in NF54 nanoGlo assay, in single point, at 2uM, 72h; a lower Z score goes with more inhibition. The test is classed as functional, Erythrocyte. Conditions: timepoint 72 hour.
Consider `COCc1nc([C@@H]2CCCCCN2C(=O)Cc2cccc(OC)c2)no1`, for which the “% Inhibition” value is listed as -2% and the Z score is 0.25.
On the same counts, the results for `Cc1cnc(Cn2cnc3c(nnn3C)c2=O)s1` are -5% and 0.68.
For the compound `CC(C)(C)NC(=O)CN1CC(C)(C)[C@@](C)(O)C1`, the “% Inhibition” value is -9% and the Z score worked out at 1.36.
On to `Cc1sc2c(c1C)C(=O)N[C@@H](c1ccncc1)N2`, for which the “% Inhibition” value is -15% and the Z score turned out to be 2.24.
On the same counts, the results for `Cc1ncsc1CN(C)C(C)C(=O)NCC1CCCO1` (stereo not drawn) are 15% and -2.78.
On to `Cc1c(Br)cccc1S(=O)(=O)N1CCn2ccnc2C1`, for which the “% Inhibition” value was -6% and the Z score was 0.77.
On to `CCC(=O)N(CCOC)Cc1c(-c2cccc(C)c2)noc1N1CCCC1`, for which the “% Inhibition” value was -2% and the Z score came out at 0.37.
On the same counts, the results for `COc1cccc(F)c1[C@H](C)NCCNC(=O)C(C)(C)C` are -15% and 1.37.
Take `O=C(NCc1cccc(-n2ccnc2)c1)NC[C@@H]1C[C@H](c2ccccc2)CO1`: the “% Inhibition” value is on record as -8% and the Z score came out at 1.66.
Regarding `Cc1nc2nc(C3CCCCC3)nn2c(C)c1CC(=O)N1CCc2ccccc2C1`, the “% Inhibition” value is given as -2% and the Z score is 0.21.
For `CCc1ccc(N2C(=O)c3cc(C(C)(C)C)nn3C[C@@]2(C)C(=O)NC2CCCCCC2)cc1`, the “% Inhibition” value is -6% and the Z score was found to be 0.89.
On to `CC(C)C(=O)N[C@@H](N1CCCCCC1)C(Cl)(Cl)Cl`, for which the “% Inhibition” value is given as -15% and the Z score was found to be 2.02.
On the same counts, the results for `CCC1=N[C@@H](NC(=N)N)Nc2cc(C)ccc21` are 0% and -0.06.
For the compound `Cc1ccc(CN(C(=O)C2CCN(CCO)CC2)C2CCCC2)s1`, the “% Inhibition” value is listed as -1% and the Z score is recorded as 0.19.
On to `Cc1noc(COCC(=O)Nc2cc(-c3ccccc3C)nn2CCO)n1`, for which the “% Inhibition” value is -1% and the Z score worked out at 0.12.
The like results for `COC(=O)[C@@H](c1cc(F)c(F)c(F)c1)N(C)C(=O)c1cccn1C` were, in that order, 1% and -0.18.
As for `O=c1c2ccccc2ncn1CCCn1ccnc1`, the “% Inhibition” value was -29% and the Z score came to 2.64.
Turning to `Cc1cccc2c(-c3cccc(C(N)=O)n3)c[nH]c12`, the “% Inhibition” value is listed as -6% and the Z score amounted to 1.19.
Turning to `O=C(NC1CCCC1)N1CCC[C@H](Cn2cc(-c3ccncc3)nn2)C1`, the “% Inhibition” value came out at 1% and the Z score is listed as -0.12.
With `C=CCOC[C@@H](O)CN(CCC(C)C)Cc1cccn1C`, the “% Inhibition” value is on record as -1% and the Z score is recorded as 0.2.
On to `O=C(NCc1ccc(O)c(F)c1)c1snnc1C1CC1`, for which the “% Inhibition” value is recorded as -2% and the Z score is reported as 0.21.
For `O=C(CCc1ccccc1)N1CCC[C@H](OCc2cccc(Cl)c2)C1`, the “% Inhibition” value was 2% and the Z score was -0.42.
With `Cc1ccc(C(=O)C2CCN(C(=O)c3cccc4cn[nH]c34)CC2)c(C)c1`, the “% Inhibition” value is on record as -15% and the Z score stood at 2.03.
In the case of `c1cncc(-c2nc3nccc(-c4ccsc4)n3n2)c1`, the “% Inhibition” value was -11% and the Z score is recorded as 1.41.

The % Inhibition is the relative decrease from the control value, in per cent.
